According to PubChem BioAssay AID624417 (National Center for Advancing Translational Sciences (NCATS), 2012):
In all, about 410,000 compounds went through this assay and about 6,400 (1.6%) were called active. This list was built around the results that the source calls inconclusive (neither active nor inactive); the mix of calls is not that of the screen. Calls come from the whole dose curve; as a rule, active = well fitted inhibition curve with a large enough effect; inconclusive = small, poorly fitted or top-dose-only effect; inactive = no such curve, though single readings can be large or run the other way. A potency beside an inconclusive call is a rough fit, not a confirmed value.

Target: Glucagon-like peptide 1 receptor (Homo sapiens) (UniProt P43220)
Assay: qHTS of GLP-1 Receptor Inverse Agonists (Inhibition Mode); note: nearly all actives have a fitted effect of over 55% in size
Conditions: HEK293 GLP-1R CRE-luciferase, luminescence, 24 h, GLP-1R form is constitutively active; activity change, negative = inhibition: at 38.3 µM (top of the series) unless noted
In short: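 Inverse agonism was detected as reduced cAMP-driven luciferase luminescence after 24 h compound treatment. The cells were HEK293 clones expressing constitutively active human GLP-1R with the reporter. Reporter-only and GPR119 cell lines served as counterscreen controls.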
% is set by controls: 0 for no effect and ±100 for the full control effect; potency is the fitted concentration of half-maximal effect; tags give direction and shape of the fitted curve.

Chain of UniProt P43220 (P43220 whole entry, looked up): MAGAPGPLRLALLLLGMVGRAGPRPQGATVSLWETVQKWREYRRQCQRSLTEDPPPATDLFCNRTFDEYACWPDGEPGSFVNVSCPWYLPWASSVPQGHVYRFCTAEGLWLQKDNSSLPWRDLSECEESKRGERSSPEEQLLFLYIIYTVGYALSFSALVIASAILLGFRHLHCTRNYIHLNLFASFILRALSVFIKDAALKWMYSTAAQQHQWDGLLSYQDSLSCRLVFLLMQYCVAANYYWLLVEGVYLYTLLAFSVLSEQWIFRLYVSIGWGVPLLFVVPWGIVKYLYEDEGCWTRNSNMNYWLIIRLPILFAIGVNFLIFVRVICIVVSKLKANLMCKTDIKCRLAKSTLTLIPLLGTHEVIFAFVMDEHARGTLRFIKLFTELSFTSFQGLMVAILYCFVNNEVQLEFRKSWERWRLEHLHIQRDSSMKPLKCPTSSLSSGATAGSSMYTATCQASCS

Potency, inconclusive:
O=C(Nc1cc(NC(=O)c2ccccc2Cl)ccc1Cl)c1ccccc1 11.2 µM [inhibitor, single point]
Cc1ccc2c(c1)N(C(=O)CCC(=O)NCc1ccccc1)CC(C)O2 (configuration not stated) 11.2 µM [inhibitor, single point]
O=C(CCCC(=O)Nc1ccc(Br)cc1)N/N=C/c1ccccc1 28.2 µM [inhibitor, single point]
CCOC(=O)C(=NC(C)C)NNc1cc(Cl)ccc1Cl 1.41 µM [inhibitor, full curve]
COc1ccc(CNC(=O)c2oc3ccc(S(=O)(=O)N4CCOCC4)cc3c2C)cc1 1.58 µM [inhibitor, full curve]
CC(C)c1ccc(NC(=O)C(c2ccccc2)N2CCOCC2)cc1 (configuration not stated) 11.2 µM [inhibitor, partial curve]
CC(=NCCc1c(C)[nH]c2ccc(OCc3ccccc3)cc12)C1=C(O)CC(c2ccccc2)CC1=O (configuration not stated) 1.12 µM [inhibitor, full curve]
O=C(CCCNC(=O)c1ccc(Cl)cc1)NCc1ccccc1Cl 11.2 µM [inhibitor, single point]
O=C(NCCCn1ccnc1)C1CCCN(S(=O)(=O)c2cc(Cl)ccc2Cl)C1 (configuration not stated) 3.55 µM [inhibitor, full curve]
c1ccc2oc(-c3[nH]ncc3CN3CCSCC3)cc2c1 28.2 µM [inhibitor, single point]
CN(CC1COc2ccccc2O1)C(=O)c1ccc(Cl)c(S(=O)(=O)N2CCCCCC2)c1 (configuration not stated) 14.1 µM [inhibitor, partial curve, poor fit]
Cc1cc(C(=O)c2ccc(C(C)(C)C)cc2)c(NC(=O)CCl)s1 20 µM [inhibitor, single point]
COc1cccc(CN2CCN(C(c3ccccc3)c3ccccc3)CC2)c1O 5.62 µM [inhibitor, partial curve]
CCOc1ccc(/C(O)=C2\C(=O)C(=O)N(c3ccc(OC)cc3)C2c2ccccc2[N+](=O)[O-])cc1 (configuration not stated) 2 µM [inhibitor, full curve]
O=C(NCC(=O)N1CCCC(C(F)(F)F)C1)c1ccc(Oc2ccccc2)cc1 (configuration not stated) 10 µM [inhibitor, partial curve, poor fit]
CCOC(=O)c1c(C)oc2nc(C)nc(N3CCN(c4ccccc4)CC3)c12 28.2 µM [inhibitor, single point]
Clc1cccc(Nc2ncnc3ccc(Br)cc23)c1 22.4 µM [inhibitor, partial curve, poor fit]
COc1ccc(Cl)cc1NC(=O)C1CCN(C(=O)Nc2ccccc2)CC1 28.2 µM [inhibitor, single point]
CC(C)[C@H]1COCCS(=O)(=O)N1Cc1ccccc1-c1cccc(Cl)c1 28.2 µM [inhibitor, single point]
Cc1nn(C)cc1S(=O)(=O)N1CCN(c2ccccc2F)CC1 2 µM [inhibitor, full curve, poor fit]
O=C(O)CCNc1ccc(NCCC(=O)O)c2c1C(=O)c1ccccc1C2=O 31.6 µM [inhibitor, single point]
Cc1ccc(C)c(N2CCN(C(=O)CCc3nc(-c4ccccc4C)no3)CC2)c1 10 µM [inhibitor, single point]
CCOC(=O)C(NC(=O)CC(C)C)(Nc1sc(C)c(CC)c1C#N)C(F)(F)F (configuration not stated) 3.55 µM [inhibitor, single point]
CCc1cccc(NC(=O)c2ccc(Cn3nc(C)cc3C)o2)c1 31.6 µM [inhibitor, single point]
COc1ccc(CCCNC(=O)C2(C)Cc3c(-c4ccc(NC(C)=O)cc4)ccnc3O2)cc1 (configuration not stated) 11.2 µM [inhibitor, partial curve, poor fit]
Cc1ccc2nc(C(C)(C)C)c(Cc3cccc(F)c3)n2c1 12.6 µM [inhibitor, single point]
Cc1cn(CCC(=O)Nc2ccc(N3CCOCC3)cc2)c2ccccc12 12.6 µM [inhibitor, partial curve, poor fit]
Cc1ccc(S(=O)(=O)Nc2cccc(C(=O)NC3CCN(Cc4ccccc4)CC3)c2)cc1F 15.8 µM [inhibitor, partial curve, poor fit]
O=[N+]([O-])c1ccccc1CSc1nc2ccccc2o1 22.4 µM [inhibitor, single point]
O=C(NCC1OCCc2ccccc21)c1ccc(NC(=O)c2ccc(Cl)cc2)cc1 (configuration not stated) 3.16 µM [inhibitor, partial curve, poor fit]
Cc1cccc(N2CCN(Cc3nc(-c4ccc(F)cc4F)oc3C)CC2)n1 11.2 µM [inhibitor, partial curve, poor fit]
Cc1noc(-c2ccc(Cl)cc2)c1C(=O)O/N=C(\N)c1ccc(C(C)(C)C)cc1 12.6 µM [inhibitor, partial curve, poor fit]
CC1CCCN(c2ccc(N)cc2C(N)=O)C1 (configuration not stated) 2 µM [inhibitor, partial curve, poor fit]
COc1ccc(NC(=O)CSc2nc(C3CC3)nc3ccccc23)cc1 10 µM [inhibitor, partial curve, poor fit]
CCOc1ccccc1CN1CCN(Cc2nc3ccccc3s2)CC1CCO (configuration not stated) 15.8 µM [inhibitor, single point]
COCCOC(=O)c1c(C)nc(SCC(=O)Nc2cccc3ccccc23)c(C#N)c1-c1ccco1 28.2 µM [inhibitor, single point]
O=C(NCC1COc2ccccc2O1)c1cccc(S(=O)(=O)N2CCCCC2)c1 (configuration not stated) 10 µM [inhibitor, partial curve, poor fit]
CCCn1c(=O)c2c(nc3n2CCCN3CCc2ccccc2)n(C)c1=O 28.2 µM [inhibitor, single point]
Cc1ccc(N(C)S(=O)(=O)c2ccc(-c3cc(C)no3)s2)cc1 1.78 µM [inhibitor, partial curve, poor fit]
C#CCN(C[C@@H]1[C@@H](OC(=O)NCC2CCCCC2)[C@@H](OC(=O)NCC2CCCCC2)CN(C(=O)OC(C)C)N1C(=O)OC(C)C)S(=O)(=O)c1ccc(C)cc1 3.55 µM [inhibitor, full curve, poor fit]
O=C(NCc1cccs1)C1CCCN(S(=O)(=O)c2ccc(Br)s2)C1 (configuration not stated) 2.51 µM [inhibitor, full curve]
Cc1cc(C)c2c(-n3cccc3)c(C(=O)NCCCN3CCCCC3C)sc2n1 (configuration not stated) 11.2 µM [inhibitor, partial curve, poor fit]
Cc1onc(-c2ccccc2)c1CNS(=O)(=O)c1cccc(Cl)c1 28.2 µM [inhibitor, single point]
Cc1ccc(CCNc2ncnc(Cl)c2N)cc1 10 µM [inhibitor, partial curve, poor fit]
Cc1ccc(S(=O)(=O)N(CC(=O)NCc2ccco2)Cc2ccccc2F)cc1 11.2 µM [inhibitor, partial curve, poor fit]
COCCCNC(=O)C1CCC(CNS(=O)(=O)c2ccc(Cl)cc2)CC1 (configuration not stated) 28.2 µM [inhibitor, single point]
CCCCCC1CC(CC(=O)Nc2ccc([N+](=O)[O-])cc2)C(=O)O1 (configuration not stated) 28.2 µM [inhibitor, single point]
Cc1cc(OCC(O)CNC(C)(C)C)ccc1Cl (configuration not stated) 14.1 µM [inhibitor, partial curve, poor fit]

Potency, active:
Cc1cc(C)c(-c2csc(NC(=O)c3cc([N+](=O)[O-])ccc3N3CCOCC3)n2)c(C)c1 8.91 µM
CCc1ccc(N(C(=O)c2ccco2)C(C(=O)NC2CCCC2)c2ccco2)cc1 (configuration not stated) 10 µM

Potency, inactive:
COc1cccc(C(=O)Oc2ccc(/C=N/Nc3ccc(C(=O)O)cc3)cc2OC)c1
CCNC(=O)C1CCCN(Cc2ccc(OCc3ccccc3)cc2)CC1 (configuration not stated)
Fc1ccccc1N1CCN(CCCNc2ccc3nncn3n2)CC1
COc1ccccc1N1CCN(C(=O)CCS(=O)(=O)c2cc(Br)cc3c2N(C(=O)C2CC2)CC3)CC1
O=C(CSc1nnc(CNC(=O)c2ccccc2)n1-c1cccc(Cl)c1)Nc1ccccc1F
COc1ccc(-c2cnnc(N/N=C/c3ccc(O)cc3)n2)cc1
NS(=O)(=O)c1ccc(CCNC(=O)c2nc(SCc3ccccc3F)ncc2Cl)cc1
COc1cccc(C2C(C(=O)Nc3ccccc3OC)=C(C)Nc3nc4ccccc4n32)c1 (configuration not stated)
CCCCCCN1C=C/C(=C\C=C(C#N)C#N)c2ccccc21
COCc1nnc(NC(=O)c2ccc(S(=O)(=O)N3CCCC3)cc2)o1
Cc1cc2nc(/C=C/c3nc4cc(C)c(C)cc4[nH]3)[nH]c2cc1C

Activity change, negative = inhibition, inconclusive:
O=C(CCC(=O)Nc1ccc(Br)cc1)N/N=C/c1ccccc1F -39% [inhibitor]
